From PubChem BioAssay AID686978 (National Center for Advancing Translational Sciences (NCATS), 2013)
Hit rate of the full screen: of about 420,000 compounds, about 64,000 (15%) were called active. The shares of active, inactive and inconclusive entries below differ from those in the screen. Calls come from the whole dose curve; as a rule, active = well fitted inhibition curve with a large enough effect; inconclusive = small, poorly fitted or top-dose-only effect; inactive = flat fitted curve, though single readings scatter. No potency is given beside an inconclusive call; the fits are too rough.

experiment: qHTS for Inhibitors of human tyrosyl-DNA phosphodiesterase 1 (TDP1): qHTS in cells in absence of CPT; settings: DT40 Tdp1-/- hTDP1 cells, no CPT, ATP luminescence, 48 h; activity change, negative = growth inhibition: at 46.2 µM (top of the series) unless noted; note: nearly all actives have a fitted effect of over 55% in size
Outline: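 Luminescent ATP content (CellTiter-Glo) served as the growth readout. Knockout chicken DT40 cells expressing human TDP1 were exposed to compounds without camptothecin for a minimum 48 hr at 37 °C.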
% is set by controls: 0 for no effect and ±100 for the full control effect; potency is the fitted concentration of half-maximal effect; tags give direction and shape of the fitted curve.

| Structure (SMILES) | Potency | activity change, negative = growth inhibition |
| --- | --- | --- |
| COc1ccccc1NC(=S)NNC(=O)c1c(Cl)c(C)nn1C | inconclusive [inhibitor, single point] |  |
| COc1cc([C@H](Cc2ccccc2)NC(C)=O)oc(=O)c1 | inconclusive [inhibitor, single point] |  |
| Cc1ccc(CNC(=O)C2(S(=O)(=O)c3ccc(C)cc3)CC2)cc1 | inactive |  |
| O=C(CCC(=O)N1CCN(c2cccc(Cl)c2)CC1)N1CCN(c2ccccc2)CC1 | active: 8.2 µM |  |
| CCOC(=O)Cc1csc(NC(=O)CN(C)S(=O)(=O)c2ccc3c(c2)CCC(=O)N3)n1 | inconclusive [inhibitor, single point] |  |
| Cc1oc(-c2ccc(Cl)cc2)nc1CN1CCC(C(=O)NCc2ccco2)CC1 | inconclusive [inhibitor, single point] |  |
| Oc1c(Br)cc(Br)cc1/C=N/Nc1ccc(Cl)nn1 | active: 2.91 µM |  |
| COc1cccc(CNC(=O)CSc2ccc(-c3sc(-c4ccccc4)nc3C)nn2)c1 | active: 18.4 µM |  |
| O=C(NNC(=O)c1ccccc1O)c1ccc(S(=O)(=O)Nc2ccccc2)cc1 | active: 16.4 µM |  |
| CSc1ccc(CN(C)C(=O)c2ccc(S(=O)(=O)Nc3ccccc3)cc2)cc1 | active: 20.6 µM |  |
| CCOc1ccc(S(=O)(=O)N2CCCC(C(=O)N3CCCC3)C2)cc1 (stereo not given) | inconclusive [inhibitor, single point] |  |
| CCOc1ccc(C(=O)NCC(c2ccco2)S(=O)(=O)c2ccc(C)cc2)cc1 (stereo not given) | inconclusive [inhibitor, single point] |  |
| O=C(NC1CCCc2ccccc21)C1CCN(S(=O)(=O)c2cccc3nonc23)CC1 (stereo not given) | inconclusive [inhibitor, full curve, poor fit] |  |
| Cc1cccc(-c2noc(CCCC(=O)NC3CCCCC3)n2)c1 | inconclusive [inhibitor, single point] |  |
| COc1ccc(Cl)cc1NC(=O)N1CCC(CN2CCc3ccccc3C2)CC1 | inconclusive [inhibitor, partial curve] |  |
| O=[N+]([O-])c1ccccc1S(=O)(=O)N1CCN(Cc2ccc3c(c2)OCO3)CC1 |  | inconclusive: -34.4% [inhibitor] |
| O=C(Oc1ccc([N+](=O)[O-])cc1)c1cccnc1 | inactive |  |
| Cc1nc(SCc2ccccc2C#N)n[nH]1 | inactive |  |
| O=C(NCc1ccccc1)C(c1ccc(F)cc1)N(Cc1ccco1)C(=O)c1ccccn1 (stereo not given) |  | inconclusive: -34.3% [inhibitor] |
| Cc1ccc(NC(=O)c2ccc(NC(=O)N3CCSc4ncccc43)cc2)cc1Cl | active: 11.6 µM |  |
| CCOC(=O)/C(=N/Nc1ccccc1OC)N1CCCc2ccccc21 | inconclusive [inhibitor, partial curve] |  |
| COc1ccc(-c2nc3c(n2O)CCC/C3=N\O)cc1 | inconclusive [inhibitor, single point] |  |
| C=CCn1c(SCC(=O)c2cc(C)n(Cc3cccs3)c2C)nnc1-c1ccncc1 | inconclusive [inhibitor, single point] |  |
| CCCCc1c(-c2ccc(Cl)cc2)ncn1CCc1ccccc1OC | active: 3.26 µM |  |

| Structure (SMILES) | Potency | activity change, negative = growth inhibition |
| --- | --- | --- |
| Nc1ccc(NC(=O)c2cccs2)cc1 | inactive |  |
| CC(=O)c1ccc(N2CCN(C(=O)CCS(=O)(=O)c3ccc4c(c3)CCN4C(C)=O)CC2)cc1 | inconclusive [inhibitor, partial curve] |  |
| Cc1cc(OCC(=O)N(C)Cc2ccccc2)ccc1Br | active: 23.1 µM |  |
| COc1ccc(CNCCS(=O)(=O)NN2CCOCC2)cc1 | inactive |  |
| Cc1c(C(=O)NN2CCOCC2)oc2c1ccc1ccccc12 | inconclusive [inhibitor, partial curve] |  |
| CC(C)CCNC(=O)C12CN(Cc3ccccc3)CC1C(c1ccc([N+](=O)[O-])cc1)=NO2 (stereo not given) | inconclusive [inhibitor, single point] |  |
| Cn1c(N)c(C(=O)COC(=O)/C=C/c2ccc(F)cc2)c(=O)n(C)c1=O | inconclusive [inhibitor, single point] |  |
| COc1ccc(C)cc1-n1c(SCC(=O)NC2CC2)nc2ccccc2c1=O | inconclusive [inhibitor, partial curve] |  |
| Cc1ccc(S(=O)(=O)N(C)c2ccc(OC(=O)c3ccc(=O)[nH]c3)cc2)cc1 | inconclusive [inhibitor, single point] |  |
| O=C1Nc2ccccc2-n2nnnc2C1N1CCN(c2ccc(F)cc2)CC1 (stereo not given) | inconclusive [inhibitor, single point] |  |
| Cc1ccnc(Nc2nc(-c3ccccc3)cs2)c1 | inconclusive [inhibitor, partial curve, poor fit] |  |
| O=C1CC(SCc2nc3ccccc3[nH]2)C(=O)N1c1ccc(F)c(Cl)c1 (stereo not given) | inconclusive [inhibitor, single point] |  |
| CCOC(=O)N1CCN(C(=O)C2CCCN(c3ncnc4c3nc3n4CCCCC3)C2)CC1 (stereo not given) | inconclusive [inhibitor, single point] |  |
| Cc1ccc(S(=O)(=O)c2nc(-c3ccccc3Cl)oc2N(C)C)cc1 | active: 10.3 µM |  |
| N#Cc1ccc(-c2nc3ccccc3c(=O)n2O)cc1 | inconclusive [inhibitor, single point] |  |
| CCS(=O)(=O)Nc1ccc(-c2ccc(NS(=O)(=O)CC)c(OC)c2)cc1OC | inconclusive [inhibitor, single point] |  |
| Cc1ccc(S(=O)(=O)N(C)C)cc1NC(=S)N1CCN(Cc2ccc3c(c2)OCO3)CC1 | active: 16.4 µM |  |
| O=C(COc1ccc(F)cc1Cl)Nc1ccccc1C(=O)N1CCCCC1 | inconclusive [inhibitor, single point] |  |
| Cc1onc(-c2c(F)cccc2Cl)c1C(=O)OCC(=O)NC(=O)NCC(C)C | active: 7.31 µM |  |
| CN(C(=O)c1ccccc1)C1c2c(ccc3ccccc23)OCC1CO (stereo not given) | inconclusive [inhibitor, single point] |  |
| CCOC(=O)c1cn(CC)c2c(ccc3ccccc32)c1=O | inconclusive [inhibitor, single point] |  |
| CCCCOC(=O)c1ccc(NS(=O)(=O)c2c(C)nc3scc(C)n3c2=O)cc1 | active: 23.1 µM |  |
| COc1cc(C=O)ccc1OCCOCCOc1ccccc1Cl | inconclusive [inhibitor, single point] |  |
| COc1ccccc1Nc1cc(C)nc2nc(-c3ccccc3)nn12 | inconclusive [inhibitor, single point] |  |

| Structure (SMILES) | Potency | activity change, negative = growth inhibition |
| --- | --- | --- |
| Cc1ccc(CNC(=O)Cn2ncc3c(C)n(Cc4ccc(Cl)cc4)c(C)c3c2=O)cc1 | inconclusive [inhibitor, single point] |  |
| Cc1ccc(Cl)c2sc(N3CCN(C(=O)C4CC4)CC3)nc12 | inconclusive [inhibitor, single point] |  |
| Cc1cccc(N2CCN(C(=O)Cn3cccc3)CC2)c1C | inconclusive [inhibitor, single point] |  |
| CCCCN(C=O)c1c(CC)nc2c(OCC(=O)c3ccc(F)cc3)cccn12 | inconclusive [inhibitor, partial curve] |  |
| Cc1ccc(N2C(=O)C3C4C=CC(CNC(=S)Nc5ccc(Cl)cc5)(O4)C3C2=O)cc1 (stereo not given) | active: 23.1 µM |  |
| CCOC(=O)C1(Cc2cccc(OC)c2)CCN(Cc2ccccc2)CC1 | inconclusive [inhibitor, single point] |  |
| C#CCOCCOCCOCCNc1nc(N2CCOCC2)nc(N2CCN(C(=O)CCCCCCCCCCNC(=O)Cn3cc(CCCCCN)nn3)CC2)n1 | inactive |  |
| CCOC(=O)NC(=O)/C(C=Nc1ccc(Cl)cc1)=C(\C)O | inactive |  |
| Cc1ccc(S(=O)(=O)N2CCCCCC2)cc1C(=O)Nc1cccnc1 | inactive |  |
| CCOC(=O)c1ccccc1NC(=O)COC(=O)CCC(=O)N1CCOCC1 | inactive |  |
| CCOc1ccc(CN2CCNC(=O)C2CC(=O)NCCCC2CCCC2)cc1 (stereo not given) | inconclusive [inhibitor, single point] |  |
| CSc1nsc(/C=C/Nc2ccc(Cl)cc2)c1C#N | inconclusive [inhibitor, partial curve] |  |
| O=C(Cn1ncc(Cl)c(Cl)c1=O)NC1CCCCC1 | active: 14.6 µM |  |
| CC(=O)N1CCN(C(=O)c2cc(-c3ccc(Cl)s3)nc3ccccc23)CC1 | inconclusive [inhibitor, single point] |  |
| CCOC(=O)c1sc(NC(=O)CSc2n[nH]c(CC(C)C)n2)nc1C | inconclusive [inhibitor, single point] |  |
| Cc1cccc(CC2(O)C(=O)Nc3ccccc32)n1 (stereo not given) | inactive |  |
| CCCCCCN1CCN(C2CN(Cc3cn(Cc4ccc(Cl)cc4)nn3)S(=O)(=O)C2)CC1 (stereo not given) | active: 16.4 µM |  |
| CCNS(=O)(=O)c1ccc(NC(=O)Nc2cc(C)ccc2OC)cc1 | inconclusive [inhibitor, single point] |  |
| CCOc1cc(NC(=S)NCC2CCCO2)c(OCC)cc1NC(=O)c1ccccc1F (stereo not given) | active: 23.1 µM |  |
| Cc1cccc(Nc2nc(-c3ccccc3)c(C(=O)Nc3cccnc3)s2)c1 | inconclusive [inhibitor, single point] |  |
| Cc1ccccc1Oc1cc(NC(=O)Cn2cnc([N+](=O)[O-])c2)cc([N+](=O)[O-])c1 | inconclusive [inhibitor, single point] |  |
| COc1ccc(-n2nnnc2-c2cccnc2)cc1 | inactive |  |
